The values that follow come from ChEMBL document CHEMBL4888484, “Replenishing the malaria drug discovery pipeline: Screening and hit evaluation of the MMV Hit Generation Library 1 (HGL1) against asexual blood stage Plasmodium falciparum ,using a nano luciferase reporter read-out” (2022).

Screen size: about 150,000 compounds; about 540 (0.36%) showed an effect of 50% or more. Some of the results follow.

By % Inhibition is commonly meant the change of the read-out against control, counted positive when it falls.

In the test the test system is Plasmodium falciparum. Put plainly: Primary screen in NF54 nanoGlo assay, in single point, at 2uM, 72h; a lower Z score goes with more inhibition. The test is classed as functional, Erythrocyte. To be noted: timepoint 72 hour.
`COCCN(Cc1cn(C)c2ccccc12)CC1CCN(Cc2ccccc2OC)CC1`: the “% Inhibition” value is reported as -11% and the Z score amounted to 1.27.
Taken in the same sequence, the figures for `Cn1cncc1C(=O)N1CCC(Oc2cccc(F)c2)CC1` were 8% and -1.22.
For the molecule `CCC(C)(C)N1CCN(c2ccnc(N(C)C)n2)CC1`, the “% Inhibition” value is reported as 15% and the Z score is reported as -1.96.
For `COc1cc(C)ccc1Oc1nc(C)nc(NCc2ccccc2)c1N`, the “% Inhibition” value was -1% and the Z score is on record as 0.17.
Taken in the same sequence, the figures for `CC(=O)c1ccc(N2CCN(C(=O)CCN3CCC[C@H](C)C3)CC2)cc1` were -1% and 0.22.
The corresponding values for `CC(C)Cc1cc(-c2cn(CC3(CO)CCOCC3)nn2)n[nH]1` are -9% and 1.8.
With `CC1=NN(c2ccccc2)C(=O)C12Cc1ccc(Cl)cc1N1CCN(Cc3ccccc3)CC12` (stereo unspecified), the “% Inhibition” value is given as -7% and the Z score was 1.28.
Taken in the same sequence, the figures for `Cc1ccc(C(=O)NCc2csc(C)n2)c(=O)[nH]1` were -3% and 0.31.
Taken in the same sequence, the figures for `Cc1nc(NS(=O)(=O)c2ccccc2)sc1C(=O)NCc1ccccc1` were 4% and -0.5.
With `Fc1ccccc1-c1noc(-c2cncnc2N2CCCCC2)n1`, the “% Inhibition” value was found to be 0% and the Z score came out at 0.05.
The corresponding values for `CCN(CC)Cc1cnc2c(C(=O)N(CC)[C@H]3CCOC(C)(C)C3)cnn2c1` are -16% and 1.48.
Turning to `N#Cc1ccc(C(=O)NC2CCC3CCCCC3C2)cc1` (stereo unspecified), the “% Inhibition” value is on record as -20% and the Z score was 2.85.
Consider `O=C(c1ccsc1)N1CCCc2cnc(N3CCOCC3)nc21`, for which the “% Inhibition” value was -8% and the Z score was 1.42.
With `O=C(N1CC(c2nc(-c3cnccn3)no2)C1)C1(c2ccccc2)CCOCC1`, the “% Inhibition” value is reported as -7% and the Z score came to 1.36.
The corresponding values for `Cc1ccc(N2C[C@@H](C(=O)Nc3c4c(nn3C(C)(C)C)CS(=O)(=O)C4)CC2=O)cc1` are -5% and 0.97.
Taken in the same sequence, the figures for `Cc1nc2ncnn2c2ccn(-c3ccn[nH]3)c(=O)c12` were -4% and 0.81.
On to `COc1cc(C(=O)NC[C@](C)(O)c2ccc(-c3ccccc3)cc2)cc(OC)c1OC`, for which the “% Inhibition” value is reported as -7% and the Z score is on record as 1.26.
With `Cc1ccc(C(=O)N2CCOC3CCCC32)c(=O)[nH]1` (stereo unspecified), the “% Inhibition” value is given as -10% and the Z score came to 1.3.
Taken in the same sequence, the figures for `O=C(NCc1ccncc1)[C@]1(F)CCCN(Cc2ccoc2)C1` were -11% and 0.96.
Take `Cc1csc([C@H](C)NC(=O)c2n[nH]c3c2CN(C)CC3)n1`: the “% Inhibition” value is 0% and the Z score is on record as -0.01.
The corresponding values for `Cc1csc(NC(=O)C[C@@H]2C=CCC2)n1` are -25% and 3.6.
The corresponding values for `CCc1nnc(CNC(=O)Nc2ccc3c(c2)O[C@@H](C)C(=O)N3C)o1` are -5% and 0.51.
Consider `CCc1cnc(CN(C)C(=O)[C@H]2CCc3nncn3C2)s1`, for which the “% Inhibition” value turned out to be 18% and the Z score is -2.26.
Take `COc1cc(Br)ccc1C(=O)N(C)c1cccnc1`: the “% Inhibition” value was -13% and the Z score was 1.63.
Taken in the same sequence, the figures for `CC(C)[C@@H](O)CN1CCN(c2ccsc2C#N)CC1` were -7% and 0.74.
Taken in the same sequence, the figures for `O=C(c1cnc(C2CC2)nc1)N1CCN(C(=O)c2c(F)cccc2F)CC1` were -1% and 0.1.
Take `COc1cccc(CN2C(=O)N[C@@](C)(C3CCN(Cc4cc(C)cc(C)c4)CC3)C2=O)c1OC`: the “% Inhibition” value is -13% and the Z score was found to be 1.82.
The corresponding values for `Cc1cnc(C)c(N2CCC([C@H](O)C(F)(F)F)CC2)n1` are -10% and 1.52.
Taken in the same sequence, the figures for `N#Cc1cccc(C(=O)Nc2ccc3c(c2)OC2(CCCCC2)O3)c1` were -11% and 1.17.
For the molecule `O=C(NC1CN(Cc2ccccc2)CCC1CO)C1=COCCO1` (stereo unspecified), the “% Inhibition” value worked out at 1% and the Z score is -0.19.
The corresponding values for `CC(C)(C(=O)N1CCC2(CC1)NC(=O)NC2=O)c1ccccc1` are -8% and 1.25.
Taken in the same sequence, the figures for `O=S1(=O)CCN(C2CCN(S(=O)(=O)c3ccccc3OC(F)(F)F)CC2)CC1` were -6% and 0.64.
As to `COC(=O)c1ccc(NC(=O)c2ccc(-n3ccnc3C)nn2)cc1`, the “% Inhibition” value is recorded as -4% and the Z score came to 0.78.
Take `Cc1cc(C(=O)NC(C)C2CCCO2)c(C)n1-c1ccc2c(c1)OCCO2` (stereo unspecified): the “% Inhibition” value is -3% and the Z score was found to be 0.29.
In the case of `CC(NC(=O)Nc1cccc(Cl)c1)C(c1cccs1)N1CCCC1` (stereo unspecified), the “% Inhibition” value was -10% and the Z score turned out to be 1.06.
As to `COCCN(CCNC(=O)N1CCC(C)CC1)C1CC1`, the “% Inhibition” value came to 5% and the Z score is -0.4.
Taken in the same sequence, the figures for `COc1ccc(CC(=O)Nc2c(C(=O)c3ccc(OC)c(Cl)c3)oc3ccccc23)cc1` were 3% and -0.35.
Taken in the same sequence, the figures for `CCCC(=O)O[C@@H](C)Cc1cccnc1` were -8% and 0.83.
The corresponding values for `CN1CCC(N(C)C[C@H](NC(=O)Cc2ccc(Br)cc2)c2ccccc2)CC1` are 14% and -1.79.
With `CCCc1c(C(=O)N2CCN(c3nc4nccc(-c5cccc(C)c5)n4n3)CC2)cnn1-c1ccccc1`, the “% Inhibition” value is -2% and the Z score came out at 0.19.
As for `CC(C)C[C@H](NC(=O)c1cnc(-c2cccnc2)nc1O)c1ncnn1C`, the “% Inhibition” value was -10% and the Z score came to 1.27.
Taken in the same sequence, the figures for `CN(C)CCNC(=O)CCc1cc2n(n1)CCN(c1cccc(C#N)n1)C2` were -21% and 2.23.
The corresponding values for `Nc1ncnc2cc(C(=O)N3CCOCC4(CCCC4)C3)ccc12` are -7% and 1.03.
Taken in the same sequence, the figures for `Cc1noc(C)c1CC(=O)N[C@H]1CC(=O)N(Cc2cccc3ccccc23)C1` were -9% and 1.25.
Turning to `COC(=O)[C@@H](Cc1cccnc1)NC(=O)[C@H]1CN(C(=O)Nc2ccccc2)CCN1S(=O)(=O)c1ccccc1`, the “% Inhibition” value stood at 3% and the Z score is listed as -0.41.
The corresponding values for `Cc1cc2c(cc1C)O[C@H](C(=O)NCC1(S(C)(=O)=O)CCCC1)C2` are -12% and 2.22.
The corresponding values for `Cc1cnc(C(=O)N[C@@H]2CCC[C@@H]2C(=O)NCc2ccc(C(F)(F)F)cc2)cn1` are -16% and 2.
The corresponding values for `CCCn1nc2n(c1=O)CCN(Cc1sccc1C)C2` are -17% and 3.
Consider `CCOc1ccc2c(c1)NC(=O)C[C@H]2c1ccc2onc(C)c2c1`, for which the “% Inhibition” value is reported as -15% and the Z score was found to be 1.42.
For `O=C(COc1ccccc1)N1CCC(N2C(=O)[C@@H]3CCCN3C2=O)C1` (stereo partly specified), the “% Inhibition” value worked out at 6% and the Z score is reported as -0.89.
The corresponding values for `Cn1cc(-c2cc3n(n2)CCC(=O)N3CC(=O)NCc2ccccc2Cl)c2ccccc21` are -1% and 0.22.
Taken in the same sequence, the figures for `CN(Cc1ncc[nH]1)C[C@H]1CCCCN1C(=O)OC(C)(C)C` were -5% and 0.57.
The corresponding values for `N#CCN1CCN(C(=O)c2ccc3[nH]ccc3c2)CC1` are -3% and 0.6.
In the case of `O=C(Cn1ncc(=O)c2ccccc21)N1CCC[C@H]1c1ccc2c(c1)OCCCO2`, the “% Inhibition” value was found to be 3% and the Z score is -0.49.
On to `CCOc1ccc2nc(N(C[C@H]3CCCO3)C(=O)c3c(-c4ccccc4Cl)noc3C)sc2c1`, for which the “% Inhibition” value is recorded as 4% and the Z score is -0.62.
As to `c1ccc(-c2ncn(CCc3c[nH]cn3)c2-c2ccncc2)cc1`, the “% Inhibition” value is on record as -7% and the Z score is on record as 0.8.
Taken in the same sequence, the figures for `CCCn1ncc(C(=O)NCCS(=O)(=O)CC(C)C)c1C` were 1% and -0.1.
Taken in the same sequence, the figures for `COc1ccc(C(=O)n2nc(-c3ccccc3)c3ccccc32)cc1` were -11% and 1.46.
The corresponding values for `CCN(CCN(C)C)C(=O)c1csc2nc(C)cn12` are -7% and 1.08.
With `Cc1ccc2nc(NC(=O)CCc3nc4ccccc4c(=O)[nH]3)sc2c1`, the “% Inhibition” value is -3% and the Z score was determined as 0.39.
Taken in the same sequence, the figures for `COc1ccc(CCNC(=O)N(Cc2cccn2C)C2CC2)cc1` were 9% and -1.75.
For `CC(C)c1cc(CN(C)C(=O)c2cc(C(F)(F)F)n(C)n2)on1`, the “% Inhibition” value came out at 3% and the Z score is -0.73.
The corresponding values for `COc1cccc(CNC(=O)[C@@H]2CCn3c(C(=O)c4ccccc4)ccc32)c1` are -6% and 0.87.
Turning to `CCCOCC(=O)N1C[C@@H](C)[C@@](C)(O)C1`, the “% Inhibition” value is reported as -1% and the Z score turned out to be 0.15.
Taken in the same sequence, the figures for `CCc1nn(C)c(Cl)c1CN1CCC(CNC(=O)c2cccs2)CC1` were 1% and -0.13.
For `CCCCCC(=O)N(Cc1ccccc1)c1c(N)n(CCOC)c(=O)[nH]c1=O`, the “% Inhibition” value was -12% and the Z score was 1.37.
Taken in the same sequence, the figures for `COc1ccc(Cn2nnc3cc(C(=O)NC4CCCCC4)ccc32)cc1` were -12% and 1.22.
The corresponding values for `NC(=O)NC(=O)CNc1cccc(F)c1F` are -1% and 0.19.
The corresponding values for `Cc1ccccc1CNC[C@H]1Cn2c(-c3ccccc3)cnc2CO1` are -4% and 0.58.
With `Cc1cc(C)c(S(=O)(=O)N(C)C(=O)C2CCC(C)O2)c(C)c1` (stereo unspecified), the “% Inhibition” value is recorded as -4% and the Z score was determined as 0.71.
As for `CC(C)c1cc(C(=O)N2CCCNC(=O)[C@@H]2C)no1`, the “% Inhibition” value is -4% and the Z score worked out at 0.39.
In the case of `CCc1nc(-c2ccc3c(c2)CCN3C(=O)COc2cccc(C)c2)no1`, the “% Inhibition” value is 14% and the Z score is -1.69.
Taken in the same sequence, the figures for `COc1cccc(-c2nc3ccc(-c4cccc(C)c4)cn3c2CCC(=O)Nc2ccc(F)cc2)c1` were -7% and 1.3.
Take `CC(C)c1csc(CCNC(=O)N2CC[C@H](N3CCCCC3)C2)n1`: the “% Inhibition” value was -13% and the Z score is listed as 1.12.
Taken in the same sequence, the figures for `COCc1ccnc(NC(=O)Nc2cnn(CC3CC3)c2)n1` were -1% and 0.11.
The corresponding values for `O=C(Nc1ccc(Br)cc1)N1CCC(c2nnc3n2CCCC3)CC1` are -9% and 1.6.
As for `CN1CCN(C(=O)C23CCC(C)(C(=O)C2=O)C3(C)C)CC1` (stereo unspecified), the “% Inhibition” value is recorded as -8% and the Z score is given as 1.02.
Taken in the same sequence, the figures for `CCN(CC)C(=O)C(=O)Nc1c(Cl)cccc1Cl` were 1% and -0.2.
Taken in the same sequence, the figures for `COc1ccc(S(=O)(=O)c2cnc(N3CCN(C(=O)c4ccco4)CC3)nc2N)cc1` were 0% and -0.04.
The corresponding values for `COCC(=O)N1CCCC[C@@]1(C)c1noc(-c2ccc(F)cc2)n1` are 30% and -3.39.
In the case of `Cc1cc(C)n(C[C@H](C)Nc2ccccn2)n1`, the “% Inhibition” value is given as -6% and the Z score came to 0.84.
Taken in the same sequence, the figures for `CCN(CC)CCN(C(=O)c1ccc2c(c1)CCCC2)c1nc2cc3c(cc2s1)OCCO3` were 19% and -2.37.
Regarding `COCCNC(=NC1CCCCC1)NCC1(c2ccccc2)CC1`, the “% Inhibition” value is reported as 9% and the Z score was -1.11.
